The source of these data is ChEMBL document CHEMBL4888484, “Replenishing the malaria drug discovery pipeline: Screening and hit evaluation of the MMV Hit Generation Library 1 (HGL1) against asexual blood stage Plasmodium falciparum ,using a nano luciferase reporter read-out” (2022).

Among all 150,000 compounds or so, about 540 (0.36%) showed an effect of 50% or more. This is one part of the list.

In the experiment the test system is Plasmodium falciparum. Put plainly: Primary screen in NF54 nanoGlo assay, in single point, at 2uM, 72h; a lower Z score goes with more inhibition. Format: functional, Erythrocyte. Conditions: timepoint 72 hour.
Usually % Inhibition stands for the relative decrease from the control value, in per cent. On to `Cn1c(C2CC2)nn(C[C@H]2CCOC2)c1=O`, for which the “% Inhibition” value was 4% and the Z score is listed as -0.61.

Regarding `CC(C)C(=O)N1CCC(c2nn(C)c3c2COCC3)CC1`, the “% Inhibition” value is reported as -1% and the Z score is 0.12.

Turning to `Cc1cc(C(=O)N[C@@H](CC(N)=O)c2ccccc2)nn1C`, the “% Inhibition” value is reported as 33% and the Z score was -3.68.

In the case of `O=S(=O)(c1ccccc1)N1CCC(NC2Cc3ccccc3C2)CC1`, the “% Inhibition” value is -9% and the Z score is reported as 1.23.

With `COc1cc(Cl)c(CN2CCN3C(=O)NC[C@H]3C2)cc1Cl`, the “% Inhibition” value came out at 5% and the Z score was -0.71.

Take `Cc1nc(C2CC2)ncc1C(=O)N1CC[C@@](O)(C2CCOCC2)[C@H](C)C1`: the “% Inhibition” value is given as -10% and the Z score is on record as 0.85.

In the case of `COc1ccc(N2CCN(C(=O)Cn3c4ccccc4c4cnn(C)c(=O)c43)CC2)cc1`, the “% Inhibition” value is -11% and the Z score was 2.02.

Consider `CN(CCOC(C)(C)C)C1CCC(CO)CC1` (centres undefined), for which the “% Inhibition” value is reported as 13% and the Z score is given as -1.84.

With `CCOc1ccccc1NC(=O)C[C@H]1C(=O)Nc2ccccc2N1C(=O)COc1ccc(C)cc1`, the “% Inhibition” value was 5% and the Z score is reported as -0.71.

As to `N#Cc1cccnc1NC1CCCC2OCCC12` (centres undefined), the “% Inhibition” value came to 27% and the Z score is recorded as -3.07.

As for `CC(C)(C)OC(=O)N1CCNCC1(C)C`, the “% Inhibition” value was determined as 11% and the Z score was -1.32.

Turning to `CCc1n[nH]c2c1CN([C@@H](C)CCc1c[nH]c3ccccc13)CC2`, the “% Inhibition” value was -2% and the Z score is given as 0.32.

Turning to `CCc1sc(C(=O)Nc2cc(C(N)=O)ccc2CN2C(=O)CN(C)C2=O)cc1C`, the “% Inhibition” value is listed as -28% and the Z score is reported as 4.31.

Take `CC(C)n1cc(S(=O)(=O)Nc2ccccc2F)c2cccnc21`: the “% Inhibition” value is 5% and the Z score was -0.92.

Take `N#Cc1cccc(CN2CCn3nnc(-c4nc(-c5ccsc5)no4)c3C2=O)c1`: the “% Inhibition” value came to 7% and the Z score is recorded as -0.91.

In the case of `CC(NCc1ccc2c(c1)OCCO2)C(C)n1cccn1` (centres undefined), the “% Inhibition” value is reported as -13% and the Z score is listed as 1.96.

Regarding `N#Cc1nc(NCCCOC2CCOCC2)ccc1Cl`, the “% Inhibition” value is given as -15% and the Z score was determined as 2.08.

Consider `Cc1nc(C)c2c(n1)O[C@@H](CN(C)Cc1c(C)nn(C)c1C)C2`, for which the “% Inhibition” value is -11% and the Z score is 1.88.

Regarding `O=C(c1cnc2ccccc2n1)N1CCN(Cc2csc(-c3ccco3)n2)CC1`, the “% Inhibition” value worked out at 2% and the Z score is reported as -0.22.

As to `CNc1nc2c(c(C(=O)N3CCCC3)n1)CN(c1ncnc3c1CCC3)CC2`, the “% Inhibition” value is reported as -8% and the Z score amounted to 1.15.

`CN(C)c1ccc(-c2nc([C@H]3CCOC3)cs2)cc1`: the “% Inhibition” value was determined as 36% and the Z score is listed as -0.78.

Take `Clc1ccccc1[C@H]1C[C@@H](c2cccs2)Nc2nnnn21`: the “% Inhibition” value is recorded as -4% and the Z score turned out to be 0.41.

As for `O=C(NCc1cc(C2CC2)on1)c1ncccc1O`, the “% Inhibition” value was determined as 5% and the Z score was -0.94.

Take `CCCN(Cc1c(-c2ccccc2)noc1N(C)Cc1ccccc1)C[C@H](O)COCC`: the “% Inhibition” value is recorded as -2% and the Z score came to 0.3.

Consider `C[C@H]1c2cccn2CCN1CC(=O)NCC(F)(F)F`, for which the “% Inhibition” value is -21% and the Z score is given as 2.1.

With `CC(=O)N1CCc2cc(S(=O)(=O)N3CCC(CC(=O)N4CCc5ccccc54)CC3)ccc21`, the “% Inhibition” value is on record as -18% and the Z score was found to be 1.69.

`O=C(CCC(=O)N1CCC(O)CC1)N[C@@H]1C[C@H]1c1c(F)cccc1Cl`: the “% Inhibition” value is given as 16% and the Z score is listed as -2.08.

For `O=C(NC[C@H]1OC[C@@H](N(Cc2cccs2)Cc2cccs2)[C@@H]1O)c1ccccc1`, the “% Inhibition” value is -10% and the Z score came to 1.34.

As to `COc1cc(OC)c(-c2nc(-c3cccc4ccccc34)c(-c3ccccc3)[nH]2)cc1OC`, the “% Inhibition” value is listed as -8% and the Z score was determined as 1.07.

As to `O=C(c1c[nH]nn1)N1CCC[C@H](C(F)(F)F)C1`, the “% Inhibition” value is on record as -3% and the Z score is 0.45.

As for `CC(C)c1cnc(-c2ccc(NC(=O)NCC(=O)N(C)C)cc2)o1`, the “% Inhibition” value is 6% and the Z score is listed as -1.05.

On to `CC(C)(O)[C@@H]1CCCN1c1ncc(C(F)(F)F)s1`, for which the “% Inhibition” value is recorded as -7% and the Z score stood at 1.04.

In the case of `CCC(C)CC(NC(=O)c1ccn(C)n1)C(=O)OC` (centres undefined), the “% Inhibition” value is listed as -2% and the Z score was found to be 0.32.

In the case of `NC(CN1CCC(O)CC1)=NOCC=Cc1ccccc1`, the “% Inhibition” value was -15% and the Z score turned out to be 1.54.

In the case of `C#C[C@](C)(CC)NC(=O)Nc1ccc(F)cn1`, the “% Inhibition” value is given as -7% and the Z score was found to be 1.13.

With `CCn1ccnc1Cn1cnc(-c2ccccc2)c1-c1c(OC)cccc1OC`, the “% Inhibition” value is listed as -4% and the Z score is on record as 0.7.

As to `O=C(NC1CCCCCCC1)c1occc1-c1ccccc1`, the “% Inhibition” value is listed as -6% and the Z score is recorded as 1.09.

Take `Cc1ccc(C[C@H](NC(=O)Cc2c(C)noc2C)c2ccccn2)cc1`: the “% Inhibition” value is reported as -9% and the Z score came out at 1.09.

With `CCOC1CC(N(C)C(=O)NCCOC)C12CCCC2` (centres undefined), the “% Inhibition” value is recorded as -11% and the Z score is recorded as 1.47.

`CC[C@H](C)N(CCC(=O)Nc1nnc(-c2cccc(Cl)c2)s1)C(=O)c1ccc(C(F)(F)F)cc1`: the “% Inhibition” value is -18% and the Z score stood at 1.95.

On to `CC(C)CCOC(=O)C[C@@H]1NCCNC1=O`, for which the “% Inhibition” value is listed as 34% and the Z score is -3.86.

Consider `Cc1ccc(-c2csc(-c3c(-c4ccccc4)noc3C)n2)cc1`, for which the “% Inhibition” value came out at 7% and the Z score is listed as -0.91.
